# Data reported in PubChem BioAssay AID463173 (ICCB-Longwood Screening Facility, Harvard Medical School, 2010).
# Out of some 52,000 compounds screened, about 4,300 (8.3%) were called active. Cut-off read from the data, not from the text of the source: active = survival mostly below about 52% (no sharp cut-off); inactive = mostly above about 56%. The list shows a part of the results.
# Test system: DeltatarO mutant
# Assay: S. aureus survival, RN4220 and DeltatarO strains – OD600, teichoic acid synthesis inhibitors, primary screen (AID 463173)
# Conditions: S. aureus RN4220 wild type/DeltatarO growth, OD600, 18 h, hits give low values, screened at 18.75 µg/mL (by protocol)
row,Compound,survival
1,COc1ccc(NC(=O)CN2C(=O)C(=O)c3ccccc32)c(OC)c1,active: 52%
2,Cc1c(C(=O)Nc2ccccc2F)sc2nc3n(c(=O)c12)CCC3,inactive: 87%
3,CCn1c(=O)c2sccc2n2c(CCCC(=O)Nc3ccc(Oc4ccccc4)cc3)nnc12,inactive: 83%
4,O=C(Nc1ccc(Br)cc1)c1cc(S(=O)(=O)N2CCc3ccccc32)ccc1F,inactive: 126%
5,CCOc1ccccc1CNC(=O)CN1C(=O)c2cccnc2Oc2ccc(C)cc21,inactive: 107%
6,CC(NC(=O)/C=C/c1ccccc1)C1COc2ccccc2O1 (stereo not given),inactive: 70%
7,C/C(=N/NC(=O)c1c(N)no[n+]1[O-])c1cccs1,inactive: 71%
8,Cc1ccc(N(O)C(=O)Nc2ccccc2)cc1,inactive: 84%
9,COc1ccc(-c2noc(CC(=O)N(C)c3cc(Cl)c(OC)cc3OC)n2)cc1,inactive: 82%
10,CCCCN(C)C(=O)c1ccc2c(c1)NC(=O)C(CC(C)C)N2 (stereo not given),inactive: 78%
11,COc1ccc(OC)c(NC(=O)N2CCC3(CC2)Oc2ccccc2C(=O)N3Cc2ccccc2F)c1,inactive: 80%
12,CCN1C(=O)C2(c3ccccc31)c1c(oc3ccccc3c1=O)C(=O)N2CCOC (stereo not given),inactive: 67%
13,CCn1c(N2CCN(S(C)(=O)=O)CC2)nc2ccccc21,inactive: 81%
14,Cc1ccc(CCNC(=O)CCCn2c(=O)c3cccn3c3ccc(F)cc32)cc1,active: 33%
15,CCCCN(CC)CCCNC(=O)c1sc2nc3n(c(=O)c2c1C)CCCCC3,inactive: 55%
16,O=C(CN1C(=O)COc2ccc(Cl)cc21)Nc1cccc(C(=O)O)c1,inactive: 54%
17,COCCNC(=O)c1cc(-c2cccc(Cl)c2)on1,inactive: 134%
18,Cc1ccc(NC(=O)Cn2c(=O)n(CC(=O)NCCc3ccccc3)c(=O)c3ccccc32)cc1,inactive: 89%
19,COc1ccc(C)cc1-n1c(SCC(=O)NCc2ccco2)nc2c([nH]c3ccccc32)c1=O,inactive: 91%
20,COc1ccc(CNC(=O)CCc2c(C)nc3c4cccnc4nn3c2C)cc1,inactive: 83%
21,COc1ccc(CC(=O)Nc2nnc3n2CCS3)cc1OC,inactive: 74%
22,CCCCN(CC)CCCNC(=O)c1nn(-c2ccc(OC)cc2)c(=O)c2c1c1ccccc1n2C,inactive: 123%
23,CNC(=O)C1CCC(Cn2c(=O)c3sccc3n(CC(=O)Nc3ccccc3)c2=O)CC1 (stereo not given),inactive: 75%

row,Compound,survival
1,O=C(Nc1ncc(Cc2ccccc2Cl)s1)c1ccc2c(c1)CC(c1ccccc1)OC2=O (stereo not given),inactive: 59%
2,CCOC(=O)c1c(C)[nH]c(C)c1S(=O)(=O)N1CCCC(C(=O)N2CCN(c3ccc(Cl)cc3)CC2)C1 (stereo not given),inactive: 96%
3,CCOC(=O)c1[nH]c(C)c(CCC(=O)N2CCN(c3cc(Cl)ccc3C)CC2)c1C,inactive: 84%
4,COc1ccc(Cl)cc1NC(=O)C1CCCN(c2cc(C)nc3ncnn23)C1 (stereo not given),inactive: 93%
5,Cc1nnc(N2CCN(c3ccccc3)CC2)c2c1nnn2Cc1ccc(F)cc1,inactive: 83%
6,O=C(Nc1ccccc1C(=O)OCc1cc(=O)n2c3c(sc2n1)CCCC3)c1ccc(Cl)cc1,active: 0%
7,Cc1ccc(C)c(NC(=O)CCn2cnnn2)c1,inactive: 148%
8,O=C1Nc2c(c(=O)[nH]c(=O)n2-c2ccc(Cl)cc2)C1(NS(=O)(=O)c1ccccc1)C(F)(F)F (stereo not given),inactive: 77%
9,COc1ccccc1Cn1c(CNS(=O)(=O)c2ccc(Cl)s2)nc2cccnc21,inactive: 100%
10,CCOc1ccccc1CNS(=O)(=O)c1cnc(N)nc1,inactive: 79%
11,CCC(=O)N1CCc2cc(Br)cc(S(=O)(=O)N3CCCC(C(=O)Nc4ccc(CC)cc4)C3)c21 (stereo not given),inactive: 84%
12,CCOC(=O)c1cccc(NC(=O)Cc2ccc(NC(=O)N3CCCCc4ccccc43)cc2)c1,inactive: 76%
13,CC1=NC(C)(C)Cc2ccccc21,inactive: 94%
14,CC(=O)c1cccc(NC(=O)Cn2cnc3c2c(=O)n(C)c(=O)n3C)c1,active: 44%
15,OCCCNC(c1ccccc1)c1ccc(O)cc1 (stereo not given),inactive: 85%
16,Nc1c(C(=O)c2ccc3c(c2)OCO3)sc(Nc2ccccc2F)c1S(=O)(=O)c1ccccc1,inactive: 71%
17,COc1ccc(C)cc1N(CC(=O)N1CCC(C)CC1)S(=O)(=O)c1ccc(C)cc1,active: 55%
18,CCOC(=O)CSc1nc2sc3c(c2c(=O)n1CC)CCCC3,inactive: 58%
19,COc1ccc(C2CC(=O)c3cc(-c4nc(-c5cccc([N+](=O)[O-])c5)cs4)c(=O)n(-c4cc(C)cc(C)c4)c3C2)cc1 (stereo not given),inactive: 58%
20,Cn1c(=O)c2c(-c3ccccc3Br)n(C(C)(C)C)cc2n(C)c1=O,inactive: 109%
21,O=C(CCCn1c(=O)c2sccc2n(Cc2c(F)cccc2Cl)c1=O)NCc1ccccc1,inactive: 138%
22,Cc1cnc2c(c1SCC(=O)N(C)c1ccccc1)c(=O)n(C)c(=O)n2C,inactive: 85%
23,CCCC(=O)Nc1ccc2nn(-c3ccc(CC)cc3)nc2c1,inactive: 56%

row,Compound,survival
1,S=c1[nH]c2ccc(Cl)cc2[nH]1,inactive: 80%
2,O=C(Nc1ccc(F)cc1F)c1ccc(-c2ccccc2)s1,inactive: 93%
3,O=C(CSc1nnc(-c2cccs2)o1)Nc1cccc(C(F)(F)F)c1,active: 47%
4,Cc1cccc(N2C(=O)CSC23C(=O)N(CC(=O)NCCc2ccccc2)c2ccccc23)c1 (stereo not given),inactive: 105%
5,O=C(NCc1ccccc1)/C(=C/c1ccco1)NC(=O)c1ccco1,inactive: 81%
6,COCCNC(=O)CSc1nc2cc3c(cc2c(=O)n1CCCCCC(=O)NCCc1ccc(OC)c(OC)c1)OCO3,inactive: 80%
7,COc1ccc(-c2cc(C(F)(F)F)n3nc(-c4ccc(Cl)cc4)cc3n2)cc1OC,inactive: 48%
8,Cc1ccc(N2CCN(Cc3nnc(-c4ccc5c(c4)OCO5)o3)CC2)c(C)c1,inactive: 86%
9,Cc1cc(C)cc(NC(=O)CSCc2cc(=O)c3cc(Cl)ccc3[nH]2)c1,inactive: 89%
10,Cc1cccc(NC(=O)Cn2nc(C)c3nn(-c4ccc(Cl)cc4)c(C)c3c2=O)c1C,inactive: 94%
11,COc1ccc(N(C(=O)Cn2nnc3ccccc32)C(C(=O)NCC2CCCO2)c2sccc2C)cc1 (stereo not given),inactive: 94%
12,COc1ccccc1N1CCN(C(=O)c2ccc3c(c2)N(Cc2ccccc2)C(=O)c2ccccc2S3(=O)=O)CC1,inactive: 72%
13,CC1(C)CC(=O)c2cc(-c3nc(-c4ccc(Br)cc4)cs3)c(=O)n(-c3ccccc3)c2C1,inactive: 154%
14,O=C(c1cnc(N2CCOCC2)c2ccccc12)N1CCN(c2ccc(F)cc2)CC1,inactive: 85%
15,Cc1c(-c2nc(-c3ccc4c(c3)[nH]c(=O)n4C)no2)cccc1[N+](=O)[O-],inactive: 100%
16,Cc1cccc(-c2noc(CN(C(C)C)S(=O)(=O)c3ccc(Br)cc3)n2)c1,active: 45%
17,Cn1ncc(I)c1C(=O)N1CCc2ccccc2C1,inactive: 86%
18,CCn1nc(-c2ccccc2)c(-c2ccccc2)c(C(=O)Nc2ccccc2C(N)=O)c1=O,inactive: 77%
19,CN(C(=O)c1cnc(N2CCOCC2)c2ccccc12)c1ccccc1F,inactive: 94%
20,COc1ccc(-n2nnnc2C2CCN(S(=O)(=O)c3cccc(Cl)c3C)CC2)cc1,inactive: 78%
21,C=CCNc1sc(C(=O)c2cccs2)c(N)c1C#N,inactive: 110%
22,O=C(Cc1ccccc1)NC1CC(=O)N(c2ccc3c(c2)OCCO3)C1 (stereo not given),inactive: 69%
23,Cc1c(CC(=O)N2CCCCC2)c(=O)oc2c(C)c(O)ccc12,inactive: 57%

row,Compound,survival
1,Cc1cc2c(cc1S(=O)(=O)CCC(=O)NCc1ccccc1)OCC(=O)N2,inactive: 92%
2,O=C(OCc1ccccc1F)c1ccc(-c2nnn(Cc3ccccc3)n2)cc1,inactive: 122%
3,O=C(O)CCS(=O)(=O)c1ccc(-c2ccccc2)cc1,inactive: 99%
4,CCN(CC)c1ccc(NC(=O)C(NS(=O)(=O)c2cccs2)C(C)C)c(C)c1 (stereo not given),inactive: 141%
5,COc1cc(OC)cc(C(=O)NCc2ccc3c(c2)CCN3C(=O)c2ccccc2)c1,inactive: 83%
6,Cc1ccc(-n2ncc3c(N4CCN(C)CC4)ncnc32)cc1,inactive: 81%
7,O=C(Cn1nc(C(F)F)cc1C1CC1)NCCC1=CCCCC1,inactive: 99%
8,NC(=O)CSc1ncnc2c1cnn2-c1ccccc1,inactive: 82%
9,CN(C)c1ccc(-c2nc(-c3ccncc3)no2)cc1[N+](=O)[O-],inactive: 81%
10,CCOC(=O)c1cc2oc(C)cc2n1CC(=O)N(C)C1CCCCC1,inactive: 92%
11,Cc1ccc(C)c(N2CCN(C(=O)c3cc(S(=O)(=O)N4CCCC4)c[nH]3)CC2)c1,inactive: 104%
12,CCCOc1ccc(C(=O)Nc2ccc(NC(=O)c3cccc(Cl)c3)cc2)cc1,inactive: 79%
13,COc1cccc(Nc2cc(-c3ccccc3)nc(C)n2)c1,active: 37%
14,CCc1ccc(S(=O)(=O)Nc2cc(-c3cn4ccccc4n3)ccc2C)cc1,inactive: 74%
15,COc1ccc(NC(=O)c2c(NCc3cccc(OC)c3)sc3c2CCC3)cc1,inactive: 66%
16,COc1ccc(C)c2sc(N(Cc3cccnc3)C(=O)COc3ccccc3)nc12,inactive: 85%
17,Cc1cccc(Nc2ncnc3c2cnn3C)c1C,inactive: 75%
18,COc1cccc(C(=O)Nc2ccc3nc(SCc4ccc(C)cc4)sc3c2)c1,inactive: 64%
19,Cn1nc(-c2ccccc2)c(-c2ccccc2)c(C(=O)Nc2ccc(S(N)(=O)=O)cc2)c1=O,active: 49%
20,Cc1cccc(-n2c(SCC(=O)Nc3ccccc3Cl)nc3n[nH]c(C)c3c2=N)c1,inactive: 88%
21,COc1ccc(CC(=O)N2CC(=O)Nc3ccc(Br)cc3C2c2ccc(F)cc2)cc1OC (stereo not given),inactive: 175%
